The compounds below were run on MLKL phosphorylation, HT29-L23 human colorectal adenocarcinoma cells (assay: cells). Conditions: read-out: pMLKL HCS Cell Assay (IC50, uM).
Cc1ccc(-c2cc(C(F)(F)F)c3c(N)ncnn23)c(F)c1C(=O)N[C@@H]1CN(C(=O)C2(F)CC2)C[C@@H]1F [Example 747, 3-[4-amino-5-(trifluoromethyl)pyrrolo[2,1-f][1,2,4]triazin-7-yl]-2-fluoro-N-[(3R,4S)-4-fluoro-1-(1-fluorocyclopropanecarbonyl)pyrrolidin-3-yl]-6-methylbenzamide] showed an IC50 of 0.026 µM.
COc1ncc(-c2cc(F)c3c(N)ncnn23)cc1C(=O)N[C@@H]1CN(C(=O)C2CC(F)(F)C2)C[C@@H]1F [Example 66, 5-{4-amino-5-fluoropyrrolo[2,1-f][1,2,4]triazin-7-yl}-N-[(3R,4S)-1-(3,3-difluorocyclobutanecarbonyl)-4-fluoropyrrolidin-3-yl]-2-methoxypyridine-3-carboxamide] gave an IC50 of 0.183 µM.
CCCCOC(=O)N1C[C@H](F)[C@H](NC(=O)c2cc(-c3cc(C(F)(F)F)c4c(N)ncnn34)cnc2OC)C1 [Example 1423, butyl (3R,4S)-3-{5-[4-amino-5-(trifluoromethyl)pyrrolo[2,1-f][1,2,4]triazin-7-yl]-2-methoxypyridine-3-amido}-4-fluoropyrrolidine-1-carboxylate] was tested, and the IC50 was 0.025 µM.
Cc1cc(F)c(-c2cc(C(F)(F)F)c3c(N)ncnn23)cc1C(=O)N[C@@H]1CN(C(=O)c2ccc(F)cn2)C[C@@H]1F [Example 821, 5-[4-amino-5-(trifluoromethyl)pyrrolo[2,1-f][1,2,4]triazin-7-yl]-4-fluoro-N-[(3R,4S)-4-fluoro-1-(5-fluoropyridine-2-carbonyl)pyrrolidin-3-yl]-2-methylbenzamide] gave an IC50 of 0.0018 µM.
With Cc1cc(F)c(-c2cc(C(F)(F)F)c3c(N)ncnn23)cc1C(=O)N[C@@H]1CN(C(=O)c2cccc(Cl)n2)C[C@@H]1F [Example 852, 5-[4-amino-5-(trifluoromethyl)pyrrolo[2,1-f][1,2,4]triazin-7-yl]-N-[(3R,4S)-1-(6-chloropyridine-2-carbonyl)-4-fluoropyrrolidin-3-yl]-4-fluoro-2-methylbenzamide] the IC50 was 0.011 µM.
Work on COc1ncc(-c2cc(CN3CCC(F)(F)CC3)c3c(N)ncnn23)cc1C(=O)N[C@@H]1CN(C(=O)c2cc(F)ccc2F)C[C@@H]1F [Example 1241, 5-{4-amino-5-[(4,4-difluoropiperidin-1-yl)methyl]pyrrolo[2,1-f][1,2,4]triazin-7-yl}-N-[(3R,4S)-1-(2,5-difluorobenzoyl)-4-fluoropyrrolidin-3-yl]-2-methoxypyridine-3-carboxamide] yielded an IC50 of 0.00061 µM.
Compound CCc1ccc(-c2cc(C(F)(F)F)c3c(N)ncnn23)cc1C(=O)N[C@@H]1CN(C(=O)CC(C)C)C[C@@H]1F [Example 978, 5-[4-amino-5-(trifluoromethyl)pyrrolo[2,1-f][1,2,4]triazin-7-yl]-2-ethyl-N-[(3R,4S)-4-fluoro-1-(3-methylbutanoyl)pyrrolidin-3-yl]benzamide] has an IC50 of 0.0058 µM.
Work on COc1ncc(-c2cc(CN3CC(F)(F)C3)c3c(N)ncnn23)cc1C(=O)N[C@@H]1CN(C(=O)C(C)(C)C)C[C@@H]1F [Example 1619, 5-{4-amino-5-[(3,3-difluoroazetidin-1-yl)methyl]pyrrolo[2,1-f][1,2,4]triazin-7-yl}-N-[(3R,4S)-1-(2,2-dimethylpropanoyl)-4-fluoropyrrolidin-3-yl]-2-methoxypyridine-3-carboxamide] yielded an IC50 of 0.0013 µM.
COc1ncc(-c2cc(C(F)(F)F)c3c(N)ncnn23)cc1C(=O)N[C@@H]1CN(C2CCc3cccc(Cl)c32)C[C@@H]1F (mixture of isomers) [Example 1360, 5-[4-amino-5-(trifluoromethyl)-pyrrolo[2,1-f][1,2,4]triazin-7-yl]-N-[(3R,4S)-1-(7-chloro-2,3-dihydro-1H-inden-1-yl)-4-fluoropyrrolidin-3-yl]-2-methoxypyridine-3-carbox-amide] was tested, and the IC50 was 0.105 µM.

From patent publication US11618753B2 (priority 2018, dated 2023)
